Reference: PubChem BioAssay AID485294 (National Center for Advancing Translational Sciences (NCATS), 2010)
Screen size: about 370,000 compounds; about 150 (0.041%) were called active. Inconclusive results, whose numbers are uncertain, are shown with a selection of clear calls. Calls follow the shape of the dose curve; as a rule, active = well fitted inhibition curve with a large enough effect; inconclusive = small, poorly fitted or top-dose-only effect; inactive = flat fitted curve, though single readings scatter. Potencies of inconclusive entries are left out as doubtful fits.

These molecules were tested against Beta-lactamase (Escherichia coli (strain K12)) (UniProt P00811) (assay: qHTS Inhibitors of AmpC Beta-Lactamase (assay with detergent)). Conditions: AmpC hydrolysis of nitrocefin, absorbance 480 nm, 0.01% Triton; activity change, negative = inhibition: at 114 µM (top of the series).
Sequence of UniProt P00811 (P00811 whole entry, looked up): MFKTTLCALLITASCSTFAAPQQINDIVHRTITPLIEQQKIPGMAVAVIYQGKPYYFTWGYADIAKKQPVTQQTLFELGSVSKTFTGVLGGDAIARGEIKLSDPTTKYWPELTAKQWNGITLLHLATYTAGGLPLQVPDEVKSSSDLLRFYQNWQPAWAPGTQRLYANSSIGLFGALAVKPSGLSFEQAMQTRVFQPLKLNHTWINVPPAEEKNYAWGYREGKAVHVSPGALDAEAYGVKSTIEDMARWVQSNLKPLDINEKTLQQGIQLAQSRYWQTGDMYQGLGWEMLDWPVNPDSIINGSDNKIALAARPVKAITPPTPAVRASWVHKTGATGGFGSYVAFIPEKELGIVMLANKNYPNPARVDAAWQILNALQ
Outline: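 20 mM phosphate pH 7.0 + 0.01% (detergent screen) or 0.0001% Triton X-100; 5.3 nM AmpC reagent; cpd preinc 15 min RT; nitrocefin (800 uM stock) to start; A480 q20 s × 4 min; Activity was normalised to no-enzyme and no-compound control wells.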
Also: nearly all actives have a fitted effect of over 25% in size.
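For activity change, negative = inhibition in this document: 0% = no-compound wells and -100% = no-enzyme wells.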
Potency is read from the fitted curve at half-maximal effect; tags tell the direction and shape of the fitted curve.

Compound	Potency	activity change, negative = inhibition
N#C/C(=C/c1ccc(N2CCCCC2)o1)C(=O)Nc1ccc2ccccc2c1	inconclusive [inhibitor, full curve, poor fit]	
Cc1csc(NC(=O)CSc2nc3ccccc3s2)n1	inconclusive [inhibitor, single point]	
Cc1ccc(CN(Cc2ccco2)C(=O)c2ccccc2Br)o1		inactive: 2.56%
Cc1ccc(/C=N/NC(=O)Nc2ccccc2)o1	inconclusive [inhibitor, full curve, poor fit]	
CC(C)COCC1CC2(CC(C)C(=O)CC2=O)C(=O)O1 (stereo not drawn)	inconclusive [inhibitor, partial curve, poor fit]	
CC(CCN1CCN(c2ccccc2)CC1)c1ccccc1 (stereo not drawn)	inconclusive [inhibitor, full curve, poor fit]	
CSCC[C@H](NC(=O)OC(C)(C)C)C(=O)N/N=C/c1c(C)[nH]c(=O)[nH]c1=O	inconclusive [inhibitor, single point]	
O=C(Cn1nc(Cl)nc1Cl)Nc1ccccc1	inconclusive [inhibitor, full curve, poor fit]	
Cc1c([C@H]2[C@@H](CC#N)C2(C)C)c2ccccc2n1C	inconclusive [inhibitor, full curve]	
CN(C)C/C=C/C(O)(c1ccccc1)c1ccccc1		inactive: 5.13%
COc1ccc(NC(=O)c2nnn(Cc3cccc(F)c3)c2N)c(OC)c1	inconclusive [inhibitor, partial curve]	
COC(=O)c1ccccc1NC(=O)C1CCCC1		inactive: -6.29%
CCOc1ccc(-c2nc(CSCC(=O)N3CCN(C(=O)c4ccco4)CC3)c(C)o2)cc1	inconclusive [inhibitor, full curve]	
COC(=O)c1ccc(N=Cc2c(C(F)(F)F)[nH]n(C)c2=O)cc1	inconclusive [inhibitor, full curve]	
O=C(NCc1cccnc1)C(=O)NCC1OCCN1S(=O)(=O)c1ccccc1 (stereo not drawn)	inconclusive [inhibitor, partial curve, poor fit]	
CC(=O)c1ccc(N2CCN(C(=O)c3cc(S(=O)(=O)N4CCCCCC4)cn3C)CC2)cc1		inactive: -2.01%
CCCCOC(=O)c1ccc(NC(=O)c2cnccn2)cc1	inconclusive [inhibitor, full curve, poor fit]	
O=C(NCCN1CCCCC1)c1cc(Cl)ccc1Cl	inconclusive [inhibitor, partial curve, poor fit]	
COc1ccc(C2Nc3ccccc3C(=O)N2NC(C)=O)c(OC)c1 (stereo not drawn)	inconclusive [inhibitor, full curve, poor fit]	
COc1ccc(NC2CCCN(C(=O)c3ccc4nc(C)c(C)nc4c3)C2)cc1OC (stereo not drawn)	inconclusive [inhibitor, full curve]	
O=C(CSc1ccc2nnc(-c3cccnc3)n2n1)NCc1ccco1		inactive: 5.93%
O=C(c1cc(COc2cccc(C(F)(F)F)c2)on1)N1CCC(c2ccccc2)CC1		inactive: 11.4%

Compound	Potency	activity change, negative = inhibition
CCOc1ccccc1CN1CCN(C2CCSCC2)CC1CCO (stereo not drawn)		inactive: 0.597%
CCCCNC(=O)CN1CCC2(O)CCCCC2C1c1ccccc1OC (stereo not drawn)	inconclusive [inhibitor, full curve]	
COc1ccc(C(=O)n2c(C)c(CCO)c(=O)n2C)cc1	inconclusive [inhibitor, full curve, poor fit]	
O=c1[nH]c2ccccc2c(=O)n1Cc1ccco1	inconclusive [inhibitor, partial curve, poor fit]	
O=C(Nc1ccccc1C(=O)O)c1ccc(NC(=O)c2ccc(Br)o2)cc1	inconclusive [inhibitor, full curve, poor fit]	
Cc1cc(-n2c(C)cc(C(=O)COc3ccccc3[N+](=O)[O-])c2C)no1		inactive: 6.73%
Cc1nc(C)c(C(=O)N/N=C/c2ccco2)s1		inactive: 3.19%
O=C(NCCc1csc(-c2cccc(F)c2)n1)C(=O)Nc1cc(F)ccc1F	inconclusive [inhibitor, full curve, poor fit]	
CCOc1ccc(NC(=O)CCNC(=O)N2C[C@H]3C[C@@H](C2)c2cccc(=O)n2C3)cc1	inconclusive [inhibitor, full curve, poor fit]	
CC(CCc1ccc(O)cc1)N1CCC(Oc2ccc(C(=O)N3CCCC3)cc2)CC1 (stereo not drawn)		inactive: -1.53%
O=C(Nc1ccccc1C(=O)NC1CCCCC1)c1ccco1	inconclusive [inhibitor, single point]	
COc1ccccc1NC(=S)NNC(=O)c1cc(C)nn1C	inconclusive [inhibitor, single point]	
COc1cc(C2NC(=O)NC(C)=C2C(=O)OC(C)C)ccc1OC(=O)c1ccco1 (stereo not drawn)	inconclusive [inhibitor, full curve, poor fit]	
COc1cc(C2C3C(=O)N(c4ccc(F)cc4)C(=O)C3ON2c2ccccc2)ccc1O (stereo not drawn)	inconclusive [inhibitor, single point]	
CCCCC(=O)Nc1cc2nn(-c3ccc(OC)cc3)nc2cc1C	inconclusive [inhibitor, partial curve]	
Cc1ccc(NC(=O)CSc2ccc(-c3ccccn3)nn2)c(C)c1	inconclusive [inhibitor, partial curve, poor fit]	
COc1ccc(NC(=O)C2CCN(C3=NS(=O)(=O)C(c4ccc(C)c(C)c4)=C3C)CC2)c(OC)c1	inconclusive [inhibitor, full curve, poor fit]	
O=C(c1cc2ccccn2n1)N1CCCC1	inconclusive [inhibitor, partial curve, poor fit]	
Cc1csc(SCC(=O)Nc2ccccc2[N+](=O)[O-])n1	inconclusive [inhibitor, single point]	
CCN1CCN(c2nnc(-n3cccc3C(=O)NCc3ccccc3OC)s2)CC1		inactive: 3.79%
Cc1nc(NC(=O)c2csc3ccccc23)sc1C	inconclusive [inhibitor, partial curve, poor fit]	
